Source: the GPR68 mutational scans of Howard et al. (2025)
The least precise scores are not listed. Two further conditions of the source, in which the scores hardly spread, are not listed. In variant names, del marks residues removed and ins residues inserted between the two positions. For some of these results: How much ogerin was present is not stated here.

B1: GPR68, Q15743 (parent)
chain: MGNITADNSSMSCTIDHTIHQTLAPVVYVTVLVVGFPANCLSLYFGYLQIKARNELGVYLCNLTVADLFYICSLPFWLQYVLQHDNWSHGDLSCQVCGILLYENIYISVGFLCCISVDRYLAVAHPFRFHQFRTLKAAVGVSVVIWAKELLTSIYFLMHEEVIEDENQHRVCFEHYPIQAWQRAINYYRFLVGFLFPICLLLASYQGILRAVRRSHGTQKSRKDQIQRLVLSTVVIFLACFLPYHVLLLVRSVWEASCDFAKGVFNAYHFSLLLTSFNCVADPVLYCFVSETTHRDLARLRGACLAFLTCSRTGRAREAYPLGAPEASGKSGAQGEEPELLTKLHPAFQTPNSPGSGGFPTGRLA

How the values were obtained:
[1] = variants of: B1; experiment: cAMP reporter score (Enrich2 score, wild type = 0); higher = more signal; HEK293T, FACS bins
[2] = variants of: B1; experiment: surface expression score (Enrich2 score, wild type = 0); higher = more signal; HEK293T, FACS bins

Variant | cAMP reporter score ([1]; pH 5.5) | cAMP reporter score ([1]; pH 6) | cAMP reporter score ([1]; pH 6, modulator: ogerin) | cAMP reporter score ([1]; pH 6.5, modulator: ogerin) | surface expression score [2]
MGNITADNSSMSCTIDHTIHQTLAPVVYVTVLVVGFPANCLSLYFGYLQIKARNELGVYLCNLTVADLFYICSLPFWLQYVLQHDNWSHGDLSCQVCGILLYENIYISVGFLCCISVDRYLAVAHPFRFHQFRTLKAAVGVSVVIWAKELLTSIYFLMHEEVIEDENQHRVCFEHYPIQLWQRAINYYRFLVGFLFPICLLLASYQGILRAVRRSHGTQKSRKDQIQRLVLSTVVIFLACFLPYHVLLLVRSVWEASCDFAKGVFNAYHFSLLLTSFNCVADPVLYCFVSETTHRDLARLRGACLAFLTCSRTGRAREAYPLGAPEASGKSGAQGEEPELLTKLHPAFQTPNSPGSGGFPTGRLA [A180L] | -1.32 | -1.23 | -1.34 | -0.776 | -1.61
MGNITADNSSMSCTIDHTIHQTLAPVVYVTVLVVGFPANCLSLYFGYLQIKARNELGVYLCNLTVADLFYICSLPFWLQYVLQHDNWSHGDLSCQVCGILLYENIYISVGFLCCISVDRYLAVAHPFRFHQFRTLKAAVGVSVVIWAKELLTSIYFLMHEEVIEDENQHRVCFEHYPIQMWQRAINYYRFLVGFLFPICLLLASYQGILRAVRRSHGTQKSRKDQIQRLVLSTVVIFLACFLPYHVLLLVRSVWEASCDFAKGVFNAYHFSLLLTSFNCVADPVLYCFVSETTHRDLARLRGACLAFLTCSRTGRAREAYPLGAPEASGKSGAQGEEPELLTKLHPAFQTPNSPGSGGFPTGRLA [A180M] | 0.6 | 1.15 | 1.42 | 0.934 | 1.86
MGNITADNSSMSCTIDHTIHQTLAPVVYVTVLVVGFPANCLSLYFGYLQIKARNELGVYLCNLTVADLFYICSLPFWLQYVLQHDNWSHGDLSCQVCGILLYENIYISVGFLCCISVDRYLAVAHPFRFHQFRTLKAAVGVSVVIWAKELLTSIYFLMHEEVIEDENQHRVCFEHYPIQNWQRAINYYRFLVGFLFPICLLLASYQGILRAVRRSHGTQKSRKDQIQRLVLSTVVIFLACFLPYHVLLLVRSVWEASCDFAKGVFNAYHFSLLLTSFNCVADPVLYCFVSETTHRDLARLRGACLAFLTCSRTGRAREAYPLGAPEASGKSGAQGEEPELLTKLHPAFQTPNSPGSGGFPTGRLA [A180N] | 0.226 | 1.8 | 1.02 | 2.01 | 0.888
MGNITADNSSMSCTIDHTIHQTLAPVVYVTVLVVGFPANCLSLYFGYLQIKARNELGVYLCNLTVADLFYICSLPFWLQYVLQHDNWSHGDLSCQVCGILLYENIYISVGFLCCISVDRYLAVAHPFRFHQFRTLKAAVGVSVVIWAKELLTSIYFLMHEEVIEDENQHRVCFEHYPIQPWQRAINYYRFLVGFLFPICLLLASYQGILRAVRRSHGTQKSRKDQIQRLVLSTVVIFLACFLPYHVLLLVRSVWEASCDFAKGVFNAYHFSLLLTSFNCVADPVLYCFVSETTHRDLARLRGACLAFLTCSRTGRAREAYPLGAPEASGKSGAQGEEPELLTKLHPAFQTPNSPGSGGFPTGRLA [A180P] | 0.626 | – | 0.706 | 0.605 | 0.679
